# Measured values taken from PubChem BioAssay AID624417 (National Center for Advancing Translational Sciences (NCATS), 2012).
# Hit rate of the full screen: of about 410,000 compounds, about 6,400 (1.6%) were called active. Inconclusive results, whose numbers are uncertain, are shown with a selection of clear calls. Calls follow the shape of the dose curve; as a rule, active = well fitted inhibition curve with a large enough effect; inconclusive = small, poorly fitted or top-dose-only effect; inactive = no such curve, though single readings can be large or run the other way. Potencies of inconclusive entries are left out as doubtful fits.
# Biological target: Glucagon-like peptide 1 receptor (Homo sapiens) (UniProt P43220)
# Chain of UniProt P43220 (P43220 whole entry, looked up): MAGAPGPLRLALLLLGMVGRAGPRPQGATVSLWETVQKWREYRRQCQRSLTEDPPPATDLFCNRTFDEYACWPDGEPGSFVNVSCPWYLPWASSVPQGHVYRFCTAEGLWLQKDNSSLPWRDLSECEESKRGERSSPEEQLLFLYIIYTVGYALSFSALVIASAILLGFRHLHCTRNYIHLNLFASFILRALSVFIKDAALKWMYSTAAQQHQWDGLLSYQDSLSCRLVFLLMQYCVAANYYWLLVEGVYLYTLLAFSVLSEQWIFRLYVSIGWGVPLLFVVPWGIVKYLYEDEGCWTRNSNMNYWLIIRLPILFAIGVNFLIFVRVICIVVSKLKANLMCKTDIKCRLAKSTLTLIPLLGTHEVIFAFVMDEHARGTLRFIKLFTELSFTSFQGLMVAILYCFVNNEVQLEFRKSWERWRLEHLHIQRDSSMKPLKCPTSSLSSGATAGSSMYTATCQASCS
# Assay: qHTS of GLP-1 Receptor Inverse Agonists (Inhibition Mode); also: nearly all actives have a fitted effect of over 55% in size
# Conditions: HEK293 GLP-1R CRE-luciferase, luminescence, 24 h, GLP-1R form is constitutively active; series mostly up to 38.3 µM
# How it was run: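 Cells are plated, allowed 12 hours at 37 deg C, then treated with compounds for 24 hr before luciferase detection reagent is added and luminescence is read after 12 min at room temperature. The HEK293 line carries constitutively active GLP-1R with a cAMP-responsive reporter.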
# Potency is read from the fitted curve at half-maximal effect; tags tell the direction and shape of the fitted curve.
row,Structure (SMILES),Potency
1,O=C(CSc1ncccn1)N1CCN(C(c2ccccc2)c2ccccc2)CC1,"inconclusive [inhibitor, partial curve, poor fit]"
2,O=C1OC(c2ccccc2)(c2ccc3cc(O)ccc3c2)c2ccccc21 (stereo not drawn),"inconclusive [inhibitor, partial curve, poor fit]"
3,COc1ccccc1CN1CCN(C(c2ccccc2)c2ccccc2)CC1,"inconclusive [inhibitor, partial curve, poor fit]"
4,Cc1nc(SCC(=O)NCC2CCCO2)c2cc(-c3ccccc3)sc2n1 (stereo not drawn),"inconclusive [inhibitor, partial curve, poor fit]"
5,CC(=O)/C(C#N)=C1\NC(=O)C(Cc2ccccc2Cl)S1 (stereo not drawn),"inconclusive [inhibitor, partial curve, poor fit]"
6,CCOc1ccc(-n2cnc3scc(-c4ccc(OC)c(OC)c4)c3c2=O)cc1,"inconclusive [inhibitor, partial curve, poor fit]"
7,CCc1cc(-c2cnnn2Cc2ccccc2)ccc1-c1cn(CC(C)C)nn1,"inconclusive [inhibitor, partial curve, poor fit]"
8,O=C(Nc1ccc(S(=O)(=O)N2CCCC2)cc1)C1CCN(S(=O)(=O)c2ccc(F)cc2)CC1,"inconclusive [inhibitor, single point]"
9,Cc1ccc(Cn2nnc3c(=O)[nH]c(C4CCCN(C(=O)Nc5ccc(F)cc5)C4)nc32)cc1 (stereo not drawn),"inconclusive [inhibitor, partial curve]"
10,Cc1ccc2c(c1)-c1c(cnn1CC(=O)Nc1ccccc1N1CCN(C)CC1)CO2,"inconclusive [inhibitor, single point]"
11,COc1ccc(NC(=O)c2sc(SCc3ccccc3)nc2N)cc1,"inconclusive [inhibitor, single point]"
12,COc1ccc(N(C(=O)c2cnccn2)C(C(=O)NC2CCCCC2)c2ccccc2)cc1 (stereo not drawn),"inconclusive [inhibitor, single point]"
13,COc1cccc(NC(=O)NCCC2=CCCCC2)c1,"inconclusive [inhibitor, single point]"
14,CCC(Oc1ccccc1)C(=O)Nc1cc(C(F)(F)F)ccc1N1CCOCC1 (stereo not drawn),"inconclusive [inhibitor, partial curve, poor fit]"
15,O=C(Nc1ccccc1Cl)c1cc(C2CCCN(C(=O)c3ccc4c(c3)CCO4)C2)on1 (stereo not drawn),"inconclusive [inhibitor, single point]"
16,CCC1(c2ccc(F)cc2)NC(=O)N(CC(=O)NC2CCCC(C)C2C)C1=O (stereo not drawn),"inconclusive [inhibitor, partial curve]"
17,CCOc1ccc(NC(=O)CSc2nnc(CC)c(CC)n2)cc1,inactive
18,CCOc1ccc(-c2c(C(=O)N/N=C/c3ccc(O)cc3)nnn2-c2nonc2N)cc1,"inconclusive [inhibitor, full curve, poor fit]"
19,CCN(CC)CCNC(=O)C1CCCN(c2nnc(C)c3c(C)n(-c4ccc(Cl)cc4)nc23)C1 (stereo not drawn),"inconclusive [inhibitor, single point]"

row,Structure (SMILES),Potency
1,COc1ccc(N(Cc2ccccc2)C(=O)c2ccccc2[N+](=O)[O-])cc1,"inconclusive [inhibitor, partial curve, poor fit]"
2,O=C(NC1CCSc2ccccc21)c1ccccc1Br (stereo not drawn),"inconclusive [inhibitor, single point]"
3,CCCc1nn(C)c(C(=O)Nc2ccccc2)c1Cl,"inconclusive [inhibitor, partial curve, poor fit]"
4,O=C(Nc1ccc2c(c1)CCC2)Nc1ccccc1F,"inconclusive [inhibitor, single point]"
5,O=C(NC1CCN(Cc2ccccc2)CC1)c1ccc2c(c1)OCCCO2,inactive
6,O=C(CN1c2ccccc2S(=O)(=O)c2ccccc21)Nc1ccccc1F,"inconclusive [inhibitor, single point]"
7,O=C(NCC1CCCO1)c1cccc(Oc2ccc([N+](=O)[O-])cc2Cl)c1 (stereo not drawn),"inconclusive [inhibitor, partial curve, poor fit]"
8,COc1ccc(S(=O)(=O)N2CCCCC2)cc1NC(=O)Cc1cccc(C(F)(F)F)c1,inactive
9,COc1ccccc1NC(=O)c1nnn(Cc2ccccc2)c1NC(=O)C(F)(F)F,inactive
10,CCN(CC(=O)Nc1ccc(S(=O)(=O)N2CCCCC2)cc1)Cc1ccccc1,"inconclusive [inhibitor, single point]"
11,O=C(NCCCCc1ccccc1)c1ccccc1Cl,active: 5.01 µM
12,OC(c1cccc(CN2CCCCC2)c1)c1ncc(-c2cccc3ccccc23)[nH]1 (stereo not drawn),"inconclusive [inhibitor, single point]"
13,CCOc1ccc(N(C(=O)c2ccccc2Cl)C2=NC(C)(C)CS2)cc1,"inconclusive [inhibitor, single point]"
14,COc1ccc(-n2ncc(C(=O)Nc3ccc(C)cc3Cl)c2C2CCN(C(=O)OC(C)(C)C)CC2)cc1,"inconclusive [inhibitor, full curve]"
15,Cc1ccccc1NC(=O)Cc1cccc(C(F)(F)F)c1,"inconclusive [inhibitor, single point]"
16,CCOC(=O)c1ccc(NC(=O)CN2CCN(c3ccccc3)CC2)cc1,"inconclusive [inhibitor, single point]"
17,O=C(Nc1ccc2ccccc2c1)C(c1ccccc1)n1c(=O)c(-c2cc3ccccc3[nH]2)nc2ccccc21 (stereo not drawn),"inconclusive [inhibitor, full curve, poor fit]"
18,C=CCc1ccc(OCC(O)CN2CCC(Cc3ccccc3)CC2)c(OC)c1 (stereo not drawn),"inconclusive [inhibitor, partial curve, poor fit]"
19,O=C(/C=C/c1ccco1)Nc1scc(-c2ccccc2)c1C(=O)O,"inconclusive [inhibitor, single point]"
